Measurements published in the RNAGym collection of RNA variant scans (doi:10.7554/elife.90254).
The source gives no read counts; variants with many changes may rest on few reads.

B1: OR4K15 (parent)
chain: GUUAACGGUCAUAGGCCAUGGAAACUAGGAGCACCAUUUCGCUGCCAGUGAAGAAAUGAACAAAGAAAAUCUGGGCCAGGCAGGCAUCAAAAGAAAUAGUCUUGCGCUCAACCAGAAAGUCUGUAAUCAUUUUAAGGGUA

Variants of: B1
Assay: self-cleavage, relative activity (ratio to wild type); higher = more cleavage; in vitro, sequencing; the parent is a self-cleaving ribozyme

| Variant | self-cleavage |
| --- | --- |
| A22G U38C U133C | 1.42 |
| A82C U87C U122C | 0.12 |
| U9C A18U A66U A89G U100C | 1.77 |
| U49A U132C A140G | 1.09 |
| A59G A92U A129U | 1.97 |
| U57G A78U U100C A110U | 0.23 |
| A23G A59G A68G | 0.77 |
| U12C A51G A59G A126G | 0.73 |
| A59G A82G U97C | 0.05 |
| A24G A54G U57A A86G A92G U130C | 0.31 |
| A30U A63U A69G A111G | 0.05 |
| A60G A63G U103C G106A | 0.02 |
| A114G A118G U130C U131C | 0 |
| A33G A51G A91G | 0.41 |
| U26C A47G U139C | 0.2 |
| U49G A55U A86G A118G A126G | 0.22 |
| A56G A67G U72C U122C | 0.11 |
| A56G A59G A92G | 1.16 |
| U9A A63G A82G U87A A90G A118G | 0.11 |
| U19A A67G A68G | 1.3 |
| A63G A116G A135U | 0.47 |
| U2C G8A A94G A117G | 0.77 |
| U2C A23G A68U A86U A89G U132C | 0.6 |
| A36G A59G U72C U108C | 0.02 |

| Variant | self-cleavage |
| --- | --- |
| A11G A64G C77G | 0.17 |
| G14C A56G A118G | 0.98 |
| A30G U38G C76U | 0.17 |
| U9A A36U U133C | 1.14 |
| A5G U37C A55G C76U G137U | 0.25 |
| A23G U39C A62G U131C | 1.61 |
| U108A C128A U131C | 0.01 |
| U12C U37C A60G U100A A114G A134G | 0.03 |
| C6U A47G A66G | 1.16 |
| C46U A95G U100A A129C | 0.55 |
| U2C U12A A78U A116G | 0.2 |
| A69G A96G U130C | 1.1 |
| A22G A47G A51G A64G | 1.01 |
| U43A A54U A117G A135G | 1.53 |
| U12A A92G U124C | 0.71 |
| A59G A66G A110U A114U | 0.01 |
| U9C A52G U103A A135G | 0.77 |
| U2G A51G U57C A90G G115C U139C | 0.02 |
| A55C A117G U120C | 0.89 |
| A67G A110G A116G | 0.04 |
| U9A G21A A22G U39C A52G A62G A66G A67G | 0.68 |
| A33U A55G U103C U122C | 0.49 |
| G48U A64G A96G | 1.88 |
| U12C C17U G20U A52G A92G | 1.12 |

| Variant | self-cleavage |
| --- | --- |
| U9C A60G C77A A96G U122C | 0.76 |
| A36G U87C A116G | 1.43 |
| G1U A33C A135U | 1.71 |
| U9G A51U A56G U57C U70C U120C | 0.23 |
| C6U A54G U57C | 1.02 |
| U38A A64G A90G | 1.92 |
| A13G A54G A94G | 1.28 |
| U12C A22U A68G A89G A98U | 1.56 |
| A24G A68G A78G A94G | 0.3 |
| A56G A62G A78G A118G | 0.07 |
| U19C A114U A126G | 0.11 |
| A67G G83A A117G U120G | 2.42 |
| A5C A47G U131C | 1.71 |
| A60G A66G G106C | 0.01 |
| U19C U39C A67G | 1.57 |
| A18G A82U U87C | 0.09 |
| C32U A52G A62G U108A | 0.01 |
| A66G U70C A95U U103G U131C | 0.01 |
| C10U U70C A117G | 0.83 |
| G65A U102A G104A U108A | 0 |
| A5G A60G U87C | 0.59 |
| A4G A18G A67G A134U | 0.59 |
| C6G C16U U19C A86G | 1.35 |
| A69G A78G A118G | 0.12 |

| Variant | self-cleavage |
| --- | --- |
| A18U A33G A60G | 0.6 |
| G7A U70C U127C | 0.22 |
| U2C A23G A30G | 1.87 |
| A91G A118U U131C | 0.09 |
| A13G U108C A114U | 0.03 |
| U57A A59U C107A | 0.01 |
| U43A A62C C85U A114G A117C | 0.07 |
| A13G U19C A59U A66G U122C | 0.8 |
| A30G U37G U97C U100C | 2.13 |
| A67G A96G U132C | 1.72 |
| A82G A91C U100C | 1.45 |
| A5G G21A A23G G28A A60G A78C | 0.51 |
| A47U A94G A118G U133C | 0.68 |
| G14U U57C A92G | 1.36 |
| A30G C105U A134G | 0.15 |
| C17U A22G U26C | 0.76 |
| C32U C40U A67G A118G U131C | 0.72 |
| A66G U108A U132C | 0.01 |
| A13G U39C U57C A89G A117G | 0.65 |
| A59G A116G A140G | 0.69 |
| A60G A63U U131C | 1.95 |
| A33G A91G U120C | 0.29 |
| G8A A86U A114C | 0.1 |
| A55U A82G A92G | 0.55 |

| Variant | self-cleavage |
| --- | --- |
| A22G A36G A63G | 1.6 |
| A5G A23G A51G A69G A94G U100C U130C | 0.89 |
| A5U A22G A89G | 0.9 |
| U9A U37C A69G U103C | 0.73 |
| A13C U139C A140U | 1.24 |
| A66G A96G A114G | 1.14 |
| A23G U38A A60G | 0.51 |
| A11C U39C U49C A94G A116G | 0.28 |
| U19C A47G A94G A114U | 0.06 |
| A47U U57C A63G A64G U102A | 0.2 |
| C34A A90G U108C | 0.03 |
| U2A A52G A62G A116G | 0.95 |
| A30G A62G A92G C113U | 0.05 |
| U19C U39C A68U U130C G137U | 1.45 |
| A52G A62G U127C | 0.81 |
| A54G A86U A95G U122A A140G | 1.82 |
| A11G A52G G80C U97A U127C A129G | 0.01 |
| A68G A118C U122C | 0.67 |
| U39C A66C A82U | 0.17 |
| A22G A30G A33G | 0.9 |
| A62G A94G U120C | 0.67 |
| A55G A69U A91G A111G | 0.03 |
| A36U A62G A96G U103G | 0.02 |
| U43C A59G A126G | 0.88 |

| Variant | self-cleavage |
| --- | --- |
| U9C A59U A60G A91U | 0.93 |
| U19C A22U U43C U108C | 0.07 |
| U9C U39C A68G | 1.32 |
| A22G A23G U43C U124A | 0.46 |
| A18G A96C U103C | 0.19 |
| A51G U70A A114U U124C | 0.03 |
| G14U C40U U87C U108C A129G | 0.01 |
| A18G U108A A110G | 0.02 |
| A18G A24G A36G A63G | 0.79 |
| U43A A98C U100C | 1.46 |
| A18U A68G A96G U103C | 0.24 |
| U49C U122C A135G | 1.16 |
| A5G A24C U57C A129G | 1.73 |
| A59G C77U U108C | 0 |
| U19C A59G U72A | 0.2 |
| A22G U43C A51G A118G | 1.21 |
| A18U A30U A69G U72C A90G | 0.15 |
| A62G A63G U108C | 0 |
| U9C A63G A111G U127A | 0.04 |
| A27G G41A A78U A96G | 0.42 |
| A18G U57C A59G A111G | 0.02 |
| A13U A64U A126G | 0.74 |
| A22G U87C U108C A116G A129C U130G U132C A134G | 0.26 |
| A64G A96U U122C | 0.76 |

| Variant | self-cleavage |
| --- | --- |
| U9C C85U A94G | 0.49 |
| U26A A54G U87A A117G | 1.55 |
| A11G A30G G80A C109U A110G | 0.01 |
| A24U A78U A96G | 0.49 |
| U9A A36U U103C | 0.38 |
| U12C A13G A22G A117U | 0.45 |
| U19C A98G U122C | 0.27 |
| U43A A78G A91G U131C U139A | 0.14 |
| G14C G83A U139C | 1.72 |
| A86G U122A U127C | 0.43 |
| A23G U49C U133C | 1.46 |
| A24G A91C U120C A140U | 0.35 |
| A18U U26C A82G A92G | 0.4 |
| G53A U72C A95G U103C | 0.1 |
| A94U U122C U131C | 0.84 |
| U2C A24G A114U A118G | 0.04 |
| U37C C81U A89G A126U | 0.24 |
| U9C U39A A62G A69U | 0.38 |
| U2A A23G A64G U70G A129C | 0.34 |
| A5G C40A A92G | 1.78 |
| U43C A67G U130A | 1.94 |
| A18U A36U C42U A94G | 0.71 |
| A47U A92G A96G A135G | 0.97 |
